The supplement of paper PMC8728848
This is one part of the list.

Key:
Assay in all cases: glycan array binding signal (z-score within array); higher = stronger binding
Settings in all cases: glycan notation: IUPAC condensed, linker removed
Fuc(a1-3)GlcNAc = target: Fuc(a1-3)GlcNAc
How it was run: (§1)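 The Consortium for Functional Glycomics database supplied 3228 glycan arrays, of which those lacking an available protein sequence were dropped. The binding signal, a within-array Z-score, was averaged across arrays of the same protein sequence and across linkers. Negative scores can be read as non-binding.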

[1] = target: Fuc(a1-3)[Gal(b1-4)]Glc6S
How it was run: as §1

[2] = target: Fuc(a1-3)[Gal(b1-4)]GlcNAc
How it was run: as §1

[3] = target: Fuc(a1-3)[Gal(b1-4)]GlcNAc(b1-2)Man
How it was run: as §1

[4] = target: Fuc(a1-3)[Gal(b1-4)]GlcNAc(b1-2)Man(a1-3)[Fuc(a1-3)[Gal(b1-4)]GlcNAc(b1-2)Man(a1-6)]Man(b1-4)GlcNAc(b1-4)GlcNAc
How it was run: as §1

[5] = target: Fuc(a1-3)[Gal(b1-4)]GlcNAc(b1-2)Man(a1-3)[Fuc(a1-3)[Gal(b1-4)]GlcNAc(b1-2)Man(a1-6)]Man(b1-4)GlcNAc(b1-4)[Fuc(a1-6)]GlcNAc
How it was run: as §1

[6] = target: Fuc(a1-3)[Gal(b1-4)]GlcNAc(b1-3)Gal(b1-3)[Fuc(a1-4)]GlcNAc
How it was run: as §1

[7] = target: Fuc(a1-3)[Gal(b1-4)]GlcNAc(b1-3)Gal(b1-4)[Fuc(a1-3)]GlcNAc
How it was run: as §1

[8] = target: Fuc(a1-3)[Gal(b1-4)]GlcNAc(b1-3)Gal(b1-4)[Fuc(a1-3)]GlcNAc(b1-3)Gal(b1-4)[Fuc(a1-3)]GlcNAc
How it was run: as §1

[9] = target: Fuc(a1-3)[Gal(b1-4)]GlcNAc(b1-3)GalNAc
How it was run: as §1

[10] = target: Fuc(a1-3)[Gal(b1-4)]GlcNAc(b1-6)GalNAc
How it was run: as §1

[11] = target: Fuc(a1-3)[Gal(b1-4)]GlcNAc(b1-6)[Gal(b1-3)GlcNAc(b1-3)]Gal(b1-4)Glc
How it was run: as §1

[12] = target: Fuc(a1-3)[Gal(b1-4)]GlcNAc6S
How it was run: as §1

[13] = target: Fuc(a1-3)[Gal3S(b1-4)]Glc
How it was run: as §1

[14] = target: Fuc(a1-3)[Gal3S(b1-4)]GlcNAc
How it was run: as §1

[15] = target: Fuc(a1-3)[Gal3S(b1-4)]GlcNAc6S
How it was run: as §1

[16] = target: Fuc(a1-3)[GalNAc(b1-4)]GlcNAc
How it was run: as §1

[17] = target: Fuc(a1-3)[GalNAc(b1-4)]GlcNAc6S
How it was run: as §1

Fuc(a1-4)GlcNAc = target: Fuc(a1-4)GlcNAc
How it was run: as §1

Fuc(b1-3)GlcNAc = target: Fuc(b1-3)GlcNAc
How it was run: as §1

Gal(a1-2)Gal = target: Gal(a1-2)Gal
How it was run: as §1

Gal(a1-3)Gal = target: Gal(a1-3)Gal
How it was run: as §1

Gal(a1-3)Gal(b1-3)GlcNAc = target: Gal(a1-3)Gal(b1-3)GlcNAc
How it was run: as §1

[18] = target: Gal(a1-3)Gal(b1-3)GlcNAc(b1-2)Man
How it was run: as §1

[19] = target: Gal(a1-3)Gal(b1-3)GlcNAc(b1-2)Man(a1-3)[Gal(a1-3)Gal(b1-3)GlcNAc(b1-2)Man(a1-6)]Man(b1-4)GlcNAc(b1-4)GlcNAc
How it was run: as §1

[20] = target: Gal(a1-3)Gal(b1-3)GlcNAc(b1-3)GalNAc
How it was run: as §1

[21] = target: Gal(a1-3)Gal(b1-3)GlcNAc(b1-6)GalNAc
How it was run: as §1

[22] = target: Gal(a1-3)Gal(b1-3)[Fuc(a1-4)]GlcNAc(b1-2)Man(a1-3)[Gal(a1-3)Gal(b1-3)[Fuc(a1-4)]GlcNAc(b1-2)Man(a1-6)]Man(b1-4)GlcNAc(b1-4)GlcNAc
How it was run: as §1

Gal(a1-3)Gal(b1-4)Glc = target: Gal(a1-3)Gal(b1-4)Glc
How it was run: as §1

Gal(a1-3)Gal(b1-4)GlcNAc = target: Gal(a1-3)Gal(b1-4)GlcNAc
How it was run: as §1

B1: SP16665A-bot-344-23-344 (Bacteroides ovatus) (protein)
chain: SDNEFPDFDYQTVYFANQYGLRTIELGESEFVDNTLDNQHKMVIKAAWGGGYTNRNNVVINFKVDESLCDNLYFKDTDQPLVPMPASYYTLASDRIAIPKGQIMAGVEVQLTDDFFADEKSISENYVIPLLMTNVQGADSILQGKPVVENPVLTNAGDWSILPQNFVLYAVKYVNPWHGEYLRRGIDHATVAGTSKDIIRHEQFVENDEVVNISTKSMKDNLLTLKTKDESGKDISYTVRLSFAEDGSCTVHSGSQNVVVSGSGKFVSKGEKNSLGGKDRNAIYLDYTVNLTDNNIQLATKDTLVLRTRNVYGGKSLEVVRK
- glycan array binding signal (z-score) (Fuc(a1-3)GlcNAc): -0.063
- glycan array binding signal (z-score) [1]: -0.088
- glycan array binding signal (z-score) [2]: -0.428
- glycan array binding signal (z-score) [3]: 0.187
- glycan array binding signal (z-score) [4]: -0.26
- glycan array binding signal (z-score) [5]: -0.098
- glycan array binding signal (z-score) [6]: -0.084
- glycan array binding signal (z-score) [7]: -0.237
- glycan array binding signal (z-score) [8]: 0
- glycan array binding signal (z-score) [9]: -0.329
- glycan array binding signal (z-score) [10]: -0.05
- glycan array binding signal (z-score) [11]: -0.388
- glycan array binding signal (z-score) [12]: 0.096
- glycan array binding signal (z-score) [13]: -0.714
- glycan array binding signal (z-score) [14]: 0.719
- glycan array binding signal (z-score) [15]: -0.193
- glycan array binding signal (z-score) [16]: 0.14
- glycan array binding signal (z-score) [17]: -0.483
- glycan array binding signal (z-score) (Fuc(a1-4)GlcNAc): 19.1
- glycan array binding signal (z-score) (Fuc(b1-3)GlcNAc): 0.447
- glycan array binding signal (z-score) (Gal(a1-2)Gal): -0.091
- glycan array binding signal (z-score) (Gal(a1-3)Gal): 0.236
- glycan array binding signal (z-score) (Gal(a1-3)Gal(b1-3)GlcNAc): 0.959
- glycan array binding signal (z-score) [18]: -0.138
- glycan array binding signal (z-score) [19]: 0.299
- glycan array binding signal (z-score) [20]: -0.457
- glycan array binding signal (z-score) [21]: -0.101
- glycan array binding signal (z-score) [22]: 0.394
- glycan array binding signal (z-score) (Gal(a1-3)Gal(b1-4)Glc): -0.381
- glycan array binding signal (z-score) (Gal(a1-3)Gal(b1-4)GlcNAc): 0.23
